Data: patent US6541490B1, “Bipyridine manganese complexes” (Eukarion, Inc., priority 1998, dated 2003)
For at least one compound, name, drawing or mass did not settle the structure.

Experiments:
Assay type in all cases: biochemical
[1] = Superoxide dismutase (SOD) assay: xanthene oxidase/hypoxanthene, XTT reduction; details: SOD activity from IC50 of XTT reduction (one International Unit), normalised; 0.05M Tris/HCl pH 7.4, 25° C.
Procedure: This method is adapted from what has become the standard method for the measurement of SOD activity (McCord J. M., Fridovich, I., J. Biol. Chem. 244, 6049-6055, 1969). Briefly, a steady-state production of superoxide anion was maintained by the action of xanthene oxidase (XO) on hypoxanthene (HX) at physiological pH. Presence of the anion was measured by the reduction of XTT (3′-{1-(phenylamino)-carbonyl]-3,4-tetrazolium]-bis(4-methoxy-6-nitro)benzsulphonic acid to a water-soluble product with an absorbance maximum at ˜470 nm. Hypoxanthene concentrations were titrated so as to give a steady-state rate of XTT reduction of 0.025 Optical Density Units (OD) per minute at 25° C.
(§1) The assays for compound antioxidant activity were carried out in 96-well microtitre plates using a DIAS modular assay robot instrument (Dynatech Ltd.) Compounds were solublised in DMF at 10 mM. DMF concentrations in the assay never exceeded 1%, were tolerated and were controlled for in assay plates.
Xanthene oxidase (Sigma X1875) 0.01 U/ml and XTT (Sigma X4251), 0.5 mM and hypoxanthene (Sigma H9377), typically at […], were incubated in the presence of various doses of compounds at 25° C. in 0.05M Tris/HCI pH 7.4. Rates of XTT reduction were measured over 5 minutes at 490 nm. Dose-response curves were constructed for inhibition by the compound of control rates of XTT reduction. IC50 concentrations were derived using a four-parameter logistic model using the software tools Excel (Microsoft Corp.) and Xlfit (ID Business Solutions). This concentration is equivalent to one International Unit of SOD activity. These values were normalised to units of U/mmol compound.

[2] = Catalase (CAT) assay: removal of hydrogen peroxide, HRP/ABTS read-out; details: amount of hydrogen peroxide removed per minute, per mmol of compound; 0.05M Tris HCl pH 7.4, 25° C., 60 mins
Excerpt: This method measures catalase activity as the ability to remove hydrogen peroxide from solution in the absence of hydrogen donors over one hour. After this time any remaining peroxide was removed by introduction to the mixture of high concentrations of horseradish peroxidase and the hydrogen donor 2,2′-azino-di-[3-ethyl-benzothiazoline-(6)-sulphonic acid (ABTS). This rapid reaction produces peroxide-concentration-dependant product with a maximal absorbance at 405 nm.
as §1
Hydrogen peroxide (Sigma H1009) 100 mM was incubated with various concentrations of compound in 0.05M Tris HCI pH 7.4 at 25° C. for 60 mins. In addition, a standard range of concentrations of hydrogen peroxide were placed on every microtitre plate. After incubation 0.1 volumes of a mixture of horseradish peroxidase (Sigma P-6140) 1 U/ml and ABTS (Sigma A-1888) 3 mM was added. The resultant reaction was allowed to go to completion by incubation at 25° C. for 60 mins. Plates were then read for absorbance at 405 nm. A standard curve for absorbance against known hydrogen peroxide concentration was constructed. Absorbance data for wells containing compound were interpolated against this curve using the software tools Excel (Microsoft Corp.) and Xlfit (ID Business Solutions). This analysis gives the amount of hydrogen peroxide removed per minute, per mmol of compound.
The catalase assay procedure described above provides certain advantages over previously described assays. Prior art assays of catalase activity involve direct measurement either of the amount of oxygen produced (generally using an oxygen electrode) or of the amount of hydrogen peroxide remaining (by UV absorption which generally involves use of a quartz vessel). The assay described above instead employs an indirect measurement of hydrogen peroxide concentration. The addition of peroxidase and ABTS after an appropriate time period results in immediate oxidation by POD of the ABTS using the remaining hydrogen peroxide. The oxidation of ABTS results in a colour change which can be measured. This allows the assay to be performed in a format which is simpler and which also provides for increased compound throughput relative to previous techniques. For example, the assay can be run in a multi-well plate format (such as a 96-well plate format).

[3] = Peroxidase (POD) assay: hydrogen peroxide removal with hydrogen donor ABTS; details: ABTS 3 mM, 0.05M Tris HCl pH 7.4, 25° C., 2 minutes, interpolated against horseradish peroxidase standard curve
Procedure: This method measures the ability of the compounds to remove hydrogen peroxide in the presence of the hydrogen donor 2,2′-azino-di-[3-ethyl-benzothiazoline-(6)-sulphonic acid (ABTS) (Galati, H., J. Clin. Chem. Clin. Biochem. (1979) 17, 1-7).
as §1
ABTS (Sigma A-1888) 3 mM was incubated with various concentrations of compound in 0.05M Tris HCI pH 7.4 at 25° C. A range of standard concentrations of horseradish peroxidase (Sigma P-6140) were included on each microtitre plate. Hydrogen peroxide (Sigma H1009) 100 mM was added and the plate incubated at 25° C. for 2 minutes. Absorbance at 405 nm was measured and the rates of ABTS […] calculated. A standard curve was constructed using data from wells containing known concentrations of peroxidase. Data for wells containing compound were interpolated against this curve using the software tools Excel (Microsoft Corp.) and Xlfit (ID Business Solutions). Estimations of peroxidase activity were given as International Units of peroxidase activity/mmol compound.

Row | Structure (SMILES) | SOD [1] | CAT [2] | POD [3]
1 | C=CCc1cc(OC)c2c(c1)-c1cccc(n1)-c1cccc(n1)-c1cccc(OC)c1[O][Mn]([O]C(C)=O)[O]2 [Example 39, 6-(2-Hydroxy-3-methoxyphenyl)-6′-(5-allyl-2-hydroxy-3-methoxyphenyl)-2,2′-bipyridine-manganese(III)acetate] | 179 U/mmol compound | 0.265 | 205101 International Units of peroxidase activity/mmol compound
2 | COc1cccc2c1[O][Mn]([O]C(C)=O)[O]c1ccc(C)cc1-c1cccc(n1)-c1cccc-2n1 [Example 31, 6-(2-Hydroxy-3-methoxyphenyl)-6′-(2-hydroxy-5-methylphenyl)-2,2′-bipyridine-manganese(III)acetate] | 142.5 U/mmol compound | 0.2695 | 772740 International Units of peroxidase activity/mmol compound
3 | C=CCc1cc(OC)c2c(c1)-c1cccc(n1)-c1cccc(n1)-c1cc(OC)ccc1[O][Mn]([O]C(C)=O)[O]2 [Example 38, 6-(2-Hydroxy-5-methoxyphenyl)-6′-(5-allyl-2-hydroxy-3-methoxyphenyl)-2,2′-bipyridine-manganese(III)acetate] | 187 U/mmol compound | 0.2815 | 490484 International Units of peroxidase activity/mmol compound
4 | CC(=O)[O][Mn]1[O]c2cc(C)ccc2-c2cccc(n2)-c2cccc(n2)-c2cccc(F)c2[O]1 [Example 23, 6-(3-Fluoro-2-hydroxyphenyl)-6′-(2-hydroxy-4-methylphenyl)-2,2′-bipyridine-manganese(III)acetate] | 122.5 U/mmol compound | 0.0765 | 711049 International Units of peroxidase activity/mmol compound
5 | COc1ccc2c(c1)-c1cccc(n1)-c1cccc(n1)-c1cc(OC)ccc1[O][Mn]([O]C(C)=O)[O]2 [Example 2, 6,6′-bis(2-hydroxy-5-methoxyphenyl)-2,2′-bipyridine-manganese(III)acetate] | 137.3 U/mmol compound | 0.195 | 6000 International Units of peroxidase activity/mmol compound
6 | COc1cccc2c1[O][Mn]([O]C(C)=O)[O]c1c(ccc(C)c1C)-c1cccc(n1)-c1cccc-2n1 [Example 30, 6-(3,4-Dimethyl-2-hydroxyphenyl)-6′-(2-hydroxy-3-methoxyphenyl)-2,2′-bipyridine-manganese(III)acetate] | 145 U/mmol compound | 0.1085 | 419624 International Units of peroxidase activity/mmol compound
7 | COc1ccc2c(c1)-c1cccc(n1)-c1cccc(n1)-c1cc(F)ccc1[O][Mn]([O]C(C)=O)[O]2 [Example 34, 6-(5-Fluoro-2-hydroxyphenyl)-6′-(2-hydroxy-5-methoxyphenyl)-2,2′-bipyridine-manganese(III)acetate] | 162 U/mmol compound | 0.489 | 60324.5 International Units of peroxidase activity/mmol compound
8 | COc1cccc2c1[O][Mn]([O]C(C)=O)[O]c1c(OC)cccc1-c1cccc(n1)-c1cccc-2n1 [Example 3, 6,6′-bis(2-hydroxy-3-methoxyphenyl)-2,2′-bipyridine-manganese(III)acetate] | 203.5 U/mmol compound | 0.132 | 583.5 International Units of peroxidase activity/mmol compound
9 | CC(=O)[O][Mn]1[O]c2ccc(F)cc2-c2cccc(n2)-c2cccc(n2)-c2cc(F)ccc2[O]1 [Example 6, 6,6′-bis(2-Hydroxy-5-fluorophenyl)-2,2′-bipyridine-manganese(III)acetate] | 208.95 U/mmol compound | 0.078 | 8269.1 International Units of peroxidase activity/mmol compound
10 | COc1ccc2c(c1)-c1cccc(n1)-c1cccc(n1)-c1cccc(C)c1[O][Mn]([O]C(C)=O)[O]2 [Example 16, 6-(2-Hydroxy-5-methoxyphenyl)-6′-(2-hydroxy-3-methylphenyl)-2,2′-bipyridine-manganese(III)acetate] | 97 U/mmol compound | 0.4595 | 44217 International Units of peroxidase activity/mmol compound
11 | CC(=O)[O][Mn]1[O]c2cc(C)ccc2-c2cccc(n2)-c2cccc(n2)-c2ccc(C)c(C)c2[O]1 [Example 24, 6-(3,4-Dimethyl-2-hydroxyphenyl)-6′-(2-hydroxy-4-methylphenyl)-2,2′-bipyridine-manganese(III)acetate] | 149 U/mmol compound | 0.1145 | 427224 International Units of peroxidase activity/mmol compound
12 | COc1ccc2c(c1)-c1cccc(n1)-c1cccc(n1)-c1cc(C)ccc1[O][Mn]([O]C(C)=O)[O]2 [Example 36, 6-(2-Hydroxy-5-methoxyphenyl)-6′-(2-hydroxy-5-methylphenyl)-2,2′-bipyridine-manganese(III)acetate] | 193 U/mmol compound | 0.6345 | 687026 International Units of peroxidase activity/mmol compound
13 | CC(=O)[O][Mn]1[O]c2c(F)cccc2-c2cccc(n2)-c2cccc(n2)-c2cccc(F)c2[O]1 [Example 10, 6,6′-bis(2-hydroxy-3-fluorophenyl)-2,2′-bipyridine-manganese(III)acetate] | 255.3 U/mmol compound | 0.07 | 1327.355 International Units of peroxidase activity/mmol compound
14 | COc1cccc2c1-c1cccc(n1)-c1cccc(n1)-c1c(OC)cccc1[O][Mn]([O]C(C)=O)[O]2 [Example 13, 6,6′-bis(2-Hydroxy-6-methoxyphenyl)-2,2′-bipyridine-manganese(III)acetate] | 155 U/mmol compound | 0.082 | 18222.5 International Units of peroxidase activity/mmol compound
15 | CC(=O)[O][Mn]1[O]c2ccc(C)cc2-c2cccc(n2)-c2cccc(n2)-c2cc(C)ccc2[O]1 [Example 7, 6,6′-bis(2-Hydroxy-5-methylphenyl)-2,2′-bipyridine-manganese(III)acetate] | 188.6 U/mmol compound | 0.008 | 3916.31 International Units of peroxidase activity/mmol compound
16 | CCOc1cccc2c1[O][Mn]([O]C(C)=O)[O]c1c(OCC)cccc1-c1cccc(n1)-c1cccc-2n1 [Example 4, 6,6′-bis(2-hydroxy-3-ethoxyphenyl)-2,2′-bipyridine-manganese(III)acetate] | 205.52 U/mmol compound | 0.127 | 2100.905 International Units of peroxidase activity/mmol compound
17 | CC(=O)[O][Mn]1[O]c2cc(C)ccc2-c2cccc(n2)-c2cccc(n2)-c2ccc(C)cc2[O]1 [Example 11, 6,6′-bis(2-Hydroxy-4-methylphenyl)-2,2′-bipyridine-manganese(III)acetate] | 162.7 U/mmol compound | 0.199 | 6067.78 International Units of peroxidase activity/mmol compound
